# Laboratory results from the supplement of paper PMC8728848.
# The list shows a part of the results.
# Assays:
# Test in all cases: glycan array binding signal (z-score within array); higher = stronger binding
# Settings in all cases: glycan notation: IUPAC condensed, linker removed; mutation: F63H
# [1] = target: Fuc(a1-2)[Gal(a1-3)]Gal(b1-4)GlcNAc(b1-2)Man(a1-3)[Fuc(a1-2)[Gal(a1-3)]Gal(b1-4)GlcNAc(b1-2)Man(a1-6)]Man(b1-4)GlcNAc(b1-4)GlcNAc
# How it was run: (§1)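 The Consortium for Functional Glycomics database supplied 3228 glycan arrays, of which those lacking an available protein sequence were dropped. The binding signal, a within-array Z-score, was averaged across arrays of the same protein sequence and across linkers. Negative scores can be read as non-binding.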
# [2] = target: Fuc(a1-2)[Gal(a1-3)]Gal(b1-4)GlcNAc(b1-2)Man(a1-3)[Fuc(a1-2)[Gal(a1-3)]Gal(b1-4)GlcNAc(b1-2)Man(a1-6)]Man(b1-4)GlcNAc(b1-4)[Fuc(a1-6)]GlcNAc
# How it was run: as §1
# [3] = target: Fuc(a1-2)[Gal(a1-3)]Gal(b1-4)GlcNAc(b1-3)GalNAc
# How it was run: as §1
# [4] = target: Fuc(a1-2)[Gal(a1-3)]Gal(b1-4)GlcNAc(b1-3)[Fuc(a1-2)[Gal(a1-3)]Gal(b1-4)GlcNAc(b1-6)]GalNAc
# How it was run: as §1
# [5] = target: Fuc(a1-2)[Gal(a1-3)]Gal(b1-4)GlcNAc(b1-6)GalNAc
# How it was run: as §1
# [6] = target: Fuc(a1-2)[Gal(a1-3)]Gal(b1-4)[Fuc(a1-3)]Glc
# How it was run: as §1
# [7] = target: Fuc(a1-2)[Gal(a1-3)]Gal(b1-4)[Fuc(a1-3)]GlcNAc
# How it was run: as §1
# [8] = target: Fuc(a1-2)[Gal(a1-3)]Gal(b1-4)[Fuc(a1-3)]GlcNAc(b1-3)GalNAc
# How it was run: as §1
# [9] = target: Fuc(a1-2)[Gal(a1-4)]Gal(b1-4)GlcNAc
# How it was run: as §1
# [10] = target: Fuc(a1-2)[GalNAc(a1-3)]Gal
# How it was run: as §1
# [11] = target: Fuc(a1-2)[GalNAc(a1-3)]Gal(b1-3)GalNAc(a1-3)[Fuc(a1-2)]Gal(b1-4)GlcNAc
# How it was run: as §1
# [12] = target: Fuc(a1-2)[GalNAc(a1-3)]Gal(b1-3)GalNAc(b1-3)Gal(a1-4)Gal(b1-4)Glc
# How it was run: as §1
# [13] = target: Fuc(a1-2)[GalNAc(a1-3)]Gal(b1-3)GlcNAc
# How it was run: as §1
# [14] = target: Fuc(a1-2)[GalNAc(a1-3)]Gal(b1-3)GlcNAc(b1-2)Man(a1-3)[Fuc(a1-2)[GalNAc(a1-3)]Gal(b1-3)GlcNAc(b1-2)Man(a1-6)]Man(b1-4)GlcNAc(b1-4)GlcNAc
# How it was run: as §1
# [15] = target: Fuc(a1-2)[GalNAc(a1-3)]Gal(b1-3)GlcNAc(b1-2)Man(a1-3)[Fuc(a1-2)[GalNAc(a1-3)]Gal(b1-3)GlcNAc(b1-2)Man(a1-6)]Man(b1-4)GlcNAc(b1-4)[Fuc(a1-6)]GlcNAc
# How it was run: as §1
# [16] = target: Fuc(a1-2)[GalNAc(a1-3)]Gal(b1-3)GlcNAc(b1-3)GalNAc
# How it was run: as §1
# [17] = target: Fuc(a1-2)[GalNAc(a1-3)]Gal(b1-3)GlcNAc(b1-6)GalNAc
# How it was run: as §1
# [18] = target: Fuc(a1-2)[GalNAc(a1-3)]Gal(b1-4)Glc
# How it was run: as §1
# [19] = target: Fuc(a1-2)[GalNAc(a1-3)]Gal(b1-4)GlcNAc
# How it was run: as §1
# [20] = target: Fuc(a1-2)[GalNAc(a1-3)]Gal(b1-4)GlcNAc(b1-2)Man
# How it was run: as §1
# [21] = target: Fuc(a1-2)[GalNAc(a1-3)]Gal(b1-4)GlcNAc(b1-2)Man(a1-3)[Fuc(a1-2)[GalNAc(a1-3)]Gal(b1-4)GlcNAc(b1-2)Man(a1-6)]Man(b1-4)GlcNAc(b1-4)GlcNAc
# How it was run: as §1
# [22] = target: Fuc(a1-2)[GalNAc(a1-3)]Gal(b1-4)GlcNAc(b1-2)Man(a1-3)[Fuc(a1-2)[GalNAc(a1-3)]Gal(b1-4)GlcNAc(b1-2)Man(a1-6)]Man(b1-4)GlcNAc(b1-4)[Fuc(a1-6)]GlcNAc
# How it was run: as §1
# [23] = target: Fuc(a1-2)[GalNAc(a1-3)]Gal(b1-4)GlcNAc(b1-3)Gal(b1-4)GlcNAc
# How it was run: as §1
# [24] = target: Fuc(a1-2)[GalNAc(a1-3)]Gal(b1-4)GlcNAc(b1-3)Gal(b1-4)GlcNAc(b1-3)Gal(b1-4)GlcNAc
# How it was run: as §1
# [25] = target: Fuc(a1-2)[GalNAc(a1-3)]Gal(b1-4)GlcNAc(b1-3)GalNAc
# How it was run: as §1
# [26] = target: Fuc(a1-2)[GalNAc(a1-3)]Gal(b1-4)GlcNAc(b1-3)[Fuc(a1-2)[GalNAc(a1-3)]Gal(b1-4)GlcNAc(b1-6)]GalNAc
# How it was run: as §1
# [27] = target: Fuc(a1-2)[GalNAc(a1-3)]Gal(b1-4)GlcNAc(b1-6)GalNAc
# How it was run: as §1
# [28] = target: Fuc(a1-2)[GalNAc(a1-3)]Gal(b1-4)[Fuc(a1-3)]GlcNAc
# How it was run: as §1
# [29] = target: Fuc(a1-2)[GalNAc(a1-3)]Gal(b1-4)[Fuc(a1-3)]GlcNAc(b1-3)GalNAc
# How it was run: as §1
# [30] = target: Fuc(a1-2)[GalNAc(a1-4)]Gal(b1-4)GlcNAc
# How it was run: as §1
# [31] = target: Fuc(a1-2)[GalNAc(b1-3)]Gal
# How it was run: as §1
# [32] = target: Fuc(a1-3)GlcNAc
# How it was run: as §1
# [33] = target: Fuc(a1-3)[Gal(b1-4)]Glc6S
# How it was run: as §1
# [34] = target: Fuc(a1-3)[Gal(b1-4)]GlcNAc
# How it was run: as §1
# [35] = target: Fuc(a1-3)[Gal(b1-4)]GlcNAc(b1-2)Man
# How it was run: as §1
# [36] = target: Fuc(a1-3)[Gal(b1-4)]GlcNAc(b1-2)Man(a1-3)[Fuc(a1-3)[Gal(b1-4)]GlcNAc(b1-2)Man(a1-6)]Man(b1-4)GlcNAc(b1-4)GlcNAc
# How it was run: as §1
# [37] = target: Fuc(a1-3)[Gal(b1-4)]GlcNAc(b1-2)Man(a1-3)[Fuc(a1-3)[Gal(b1-4)]GlcNAc(b1-2)Man(a1-6)]Man(b1-4)GlcNAc(b1-4)[Fuc(a1-6)]GlcNAc
# How it was run: as §1
# [38] = target: Fuc(a1-3)[Gal(b1-4)]GlcNAc(b1-3)Gal(b1-3)[Fuc(a1-4)]GlcNAc
# How it was run: as §1
# [39] = target: Fuc(a1-3)[Gal(b1-4)]GlcNAc(b1-3)Gal(b1-4)[Fuc(a1-3)]GlcNAc
# How it was run: as §1
# [40] = target: Fuc(a1-3)[Gal(b1-4)]GlcNAc(b1-3)Gal(b1-4)[Fuc(a1-3)]GlcNAc(b1-3)Gal(b1-4)[Fuc(a1-3)]GlcNAc
# How it was run: as §1
# [41] = target: Fuc(a1-3)[Gal(b1-4)]GlcNAc(b1-3)GalNAc
# How it was run: as §1
# [42] = target: Fuc(a1-3)[Gal(b1-4)]GlcNAc(b1-6)GalNAc
# How it was run: as §1
# [43] = target: Fuc(a1-3)[Gal(b1-4)]GlcNAc(b1-6)[Gal(b1-3)GlcNAc(b1-3)]Gal(b1-4)Glc
# How it was run: as §1
# [44] = target: Fuc(a1-3)[Gal(b1-4)]GlcNAc6S
# How it was run: as §1
# [45] = target: Fuc(a1-3)[Gal3S(b1-4)]Glc
# How it was run: as §1
binder,measurement,setting,value
"AAL (Agrocybe aegerita), Q6WY08 (protein) MQGVNIYNISAGTSVDLAAPVTTGDIVTFFSSALNLNAGAGNPNNTTLNLFAENGAYLLHIAHRLQENVIIFNSRQPDGPWLVEQRVSDVANQFAGIDGKAMVTVFDHGDKYQVVINEKTVIQYTKQISGLTLSLSYNATEETSIFSTVVEAVTYTGLALEHHHHHH",glycan array binding signal (z-score),[1],-0.014
same,glycan array binding signal (z-score),[2],-0.34
same,glycan array binding signal (z-score),[3],0.315
same,glycan array binding signal (z-score),[4],0.106
same,glycan array binding signal (z-score),[5],0.092
same,glycan array binding signal (z-score),[6],0.239
same,glycan array binding signal (z-score),[7],0.059
same,glycan array binding signal (z-score),[8],0.197
same,glycan array binding signal (z-score),[9],-0.525
same,glycan array binding signal (z-score),[10],0.079
same,glycan array binding signal (z-score),[11],-0.063
same,glycan array binding signal (z-score),[12],0.005
same,glycan array binding signal (z-score),[13],-0.281
same,glycan array binding signal (z-score),[14],-0.006
same,glycan array binding signal (z-score),[15],-0.159
same,glycan array binding signal (z-score),[16],0.304
same,glycan array binding signal (z-score),[17],-0.234
same,glycan array binding signal (z-score),[18],0.356
same,glycan array binding signal (z-score),[19],-0.058
same,glycan array binding signal (z-score),[20],-0.462
same,glycan array binding signal (z-score),[21],0.237
same,glycan array binding signal (z-score),[22],-0.141
same,glycan array binding signal (z-score),[23],-0.307
same,glycan array binding signal (z-score),[24],-0.016
same,glycan array binding signal (z-score),[25],-0.565
same,glycan array binding signal (z-score),[26],0.172
same,glycan array binding signal (z-score),[27],-0.202
same,glycan array binding signal (z-score),[28],-0.038
same,glycan array binding signal (z-score),[29],-0.211
same,glycan array binding signal (z-score),[30],0.336
same,glycan array binding signal (z-score),[31],-0.544
same,glycan array binding signal (z-score),[32],-0.394
same,glycan array binding signal (z-score),[33],-0.357
same,glycan array binding signal (z-score),[34],-0.254
same,glycan array binding signal (z-score),[35],-0.067
same,glycan array binding signal (z-score),[36],-0.217
same,glycan array binding signal (z-score),[37],-0.069
same,glycan array binding signal (z-score),[38],-0.001
same,glycan array binding signal (z-score),[39],-0.051
same,glycan array binding signal (z-score),[40],-0.057
same,glycan array binding signal (z-score),[41],-0.273
same,glycan array binding signal (z-score),[42],-0.056
same,glycan array binding signal (z-score),[43],-0.124
same,glycan array binding signal (z-score),[44],-0.06
same,glycan array binding signal (z-score),[45],-0.254
